# Experimental data published in a collection of fitness landscapes (doi:10.1038/s41467-024-54723-y).
# Over roughly 18,000 sequences, “TetR repression strength (sort-seq, GFP reporter)” has its median near 0.23; the highest 2% begin near 0.68. The list shows a part of the results.
# Target: TetR (class B, Tn10) (UniProt P04483)
# Experiment: TetR repression strength (sort-seq, GFP reporter) (relative to tetO2 = 1); higher = stronger repression
# Conditions: E. coli
# Method in brief: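 Repression strength is the top bin index plus one minus the read-weighted mean bin, relative to the unaltered operator's value. A low-copy library in E. coli SIG10-MAX randomized eight operator positions between a constitutive promoter and sfGFP, with TetR expressed constitutively; cells grew 5 h at 37 °C in LB with 50 µg/mL chloramphenicol and 10^6 were FACS-sorted into 13 bins that were each Illumina-sequenced. Three independent transformations were averaged, keeping only members with ≥30 reads in all replicates and CV ≤0.5.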
# Sequence of UniProt P04483 (P04483 whole entry): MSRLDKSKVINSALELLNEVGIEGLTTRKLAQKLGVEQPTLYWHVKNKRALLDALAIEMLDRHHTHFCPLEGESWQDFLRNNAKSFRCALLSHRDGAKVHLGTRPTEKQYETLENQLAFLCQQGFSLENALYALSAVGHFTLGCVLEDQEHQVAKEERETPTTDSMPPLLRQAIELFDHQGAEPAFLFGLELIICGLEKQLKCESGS
row,Sequence,TetR repression strength
1,TCCCTACAAGTGGTAGAGA,0.432
2,TCCCTATTAGTTTAGGAGA,0.276
3,TCCCCTAGAGTCTCAGAGA,0.0331
4,TCCCTTCAAGTCATTGAGA,0.0199
5,TCCCGTAAAGTAGTGGAGA,0.086
6,TCCCGCCTAGTGGATGAGA,0.194
7,TCCCGTGTAGTCTGTGAGA,0.111
8,TCCCTAGAAGTAAAAGAGA,0.0805
9,TCCCGTCTAGTGCATGAGA,0.359
10,TCCCAAGGAGTAGAAGAGA,0.327
11,TCCCGTTGAGTAGACGAGA,0.248
12,TCCCTGGGAGTCGGCGAGA,0.191
13,TCCCTACAAGTGCGTGAGA,0.408
14,TCCCTTCTAGTGATTGAGA,0.29
15,TCCCCCCAAGTAGGGGAGA,0.172
16,TCCCGGTGAGTTACGGAGA,0.499
17,TCCCGGGTAGTGATGGAGA,0.318
18,TCCCTATCAGTCGCTGAGA,0.41
19,TCCCTCGAAGTTGCAGAGA,0.153
20,TCCCATTGAGTGTTGGAGA,0.154
21,TCCCAGCTAGTTTGAGAGA,0.193
22,TCCCGTGTAGTGTGAGAGA,0.44
23,TCCCGCTAAGTTCCTGAGA,0.792
24,TCCCACCAAGTCCCTGAGA,0.386
25,TCCCTGTGAGTTGCGGAGA,0.389
26,TCCCGTCGAGTGGGCGAGA,0.129

row,Sequence,TetR repression strength
1,TCCCTGCCAGTCTCGGAGA,0.239
2,TCCCGAATAGTAATGGAGA,0.195
3,TCCCCAGAAGTACCGGAGA,0
4,TCCCCAGTAGTCAGGGAGA,0.22
5,TCCCAGCCAGTCGAAGAGA,0.383
6,TCCCCGCTAGTATCCGAGA,0.22
7,TCCCATAAAGTTGTAGAGA,0.168
8,TCCCTGCGAGTAGAGGAGA,0.00727
9,TCCCAATTAGTATAGGAGA,0.0798
10,TCCCTTTTAGTGGCGGAGA,0.206
11,TCCCGGAGAGTTTGGGAGA,0.149
12,TCCCTTGGAGTGGTAGAGA,0.172
13,TCCCAGTCAGTGGGTGAGA,0.192
14,TCCCTCGTAGTTTTTGAGA,0.352
15,TCCCGAAGAGTGGCTGAGA,0.25
16,TCCCCGCAAGTATAGGAGA,0.195
17,TCCCCATGAGTTTGGGAGA,0.183
18,TCCCGATAAGTGAGCGAGA,0.3
19,TCCCTTCAAGTTCGGGAGA,0.18
20,TCCCATGCAGTCCAAGAGA,0.286
21,TCCCGGGTAGTCAAGGAGA,0.296
22,TCCCTGTTAGTGTTAGAGA,0.344
23,TCCCAAGGAGTTGCCGAGA,0.213
24,TCCCGCTGAGTCCCAGAGA,0.193
25,TCCCGCAAAGTTGGTGAGA,0.359
26,TCCCGGTTAGTAGGAGAGA,0.199

row,Sequence,TetR repression strength
1,TCCCGCTTAGTCCACGAGA,0.212
2,TCCCGGCGAGTTAAGGAGA,0.158
3,TCCCGCGCAGTAAGTGAGA,0.418
4,TCCCCGGTAGTTTCTGAGA,0.207
5,TCCCTAAGAGTCCTCGAGA,0.353
6,TCCCTAAGAGTCAATGAGA,0.231
7,TCCCTCATAGTCGAGGAGA,0.214
8,TCCCGCTGAGTAGGCGAGA,0.587
9,TCCCTTGTAGTAATCGAGA,0.397
10,TCCCGATGAGTGATAGAGA,0.615
11,TCCCACGGAGTAAGGGAGA,0.292
12,TCCCTTGCAGTGACCGAGA,0.315
13,TCCCTCATAGTATGTGAGA,0.257
14,TCCCAGCAAGTAGGGGAGA,0.289
15,TCCCTACCAGTGATCGAGA,0.593
16,TCCCTTAGAGTGGCTGAGA,0.315
17,TCCCGGTCAGTTCGGGAGA,0.317
18,TCCCGCCAAGTGATAGAGA,0.343
19,TCCCCTTTAGTGCGTGAGA,0
20,TCCCAATCAGTCGAAGAGA,0.334
21,TCCCGGGGAGTCCCCGAGA,0.165
22,TCCCGAGGAGTGATCGAGA,0.228
23,TCCCTAGGAGTACTGGAGA,0.216
24,TCCCTAAAAGTGCACGAGA,0.261
25,TCCCCCGAAGTGCGCGAGA,0.123
26,TCCCCAAGAGTACAAGAGA,0.259

row,Sequence,TetR repression strength
1,TCCCCTTGAGTCCTTGAGA,0.326
2,TCCCCGTTAGTGACTGAGA,0.398
3,TCCCCCGAAGTAACCGAGA,0.221
4,TCCCTACTAGTACGGGAGA,0.394
5,TCCCGTTTAGTCACGGAGA,0.025
6,TCCCCCAAAGTGAAGGAGA,0.104
7,TCCCGTATAGTTCTCGAGA,0.104
8,TCCCGCACAGTCGGTGAGA,0.295
9,TCCCACTCAGTGGAAGAGA,0.283
10,TCCCCTAAAGTTAACGAGA,0.104
11,TCCCTACTAGTGTCGGAGA,0.24
12,TCCCAGCCAGTTGTGGAGA,0.243
13,TCCCCTAAAGTAGATGAGA,0.0432
14,TCCCCACTAGTGACTGAGA,0.244
15,TCCCGCAGAGTTATGGAGA,0.128
16,TCCCTTGTAGTTATGGAGA,0.504
17,TCCCCGGAAGTTGCGGAGA,0.0399
18,TCCCATCTAGTTCAAGAGA,0.465
19,TCCCAGGAAGTGTGCGAGA,0.181
20,TCCCCTGAAGTATTTGAGA,0.307
21,TCCCTAAGAGTGCTTGAGA,0.525
22,TCCCGTGTAGTAAGTGAGA,0.313
23,TCCCCGATAGTGTGCGAGA,0.501
24,TCCCGGTGAGTGAAAGAGA,0.347
25,TCCCTTTGAGTGGCCGAGA,0.0935
26,TCCCACGGAGTGGAGGAGA,0.263

row,Sequence,TetR repression strength
1,TCCCGATCAGTTATTGAGA,0.603
2,TCCCCAGTAGTTAGGGAGA,0.28
3,TCCCTTGGAGTAAGCGAGA,0.233
4,TCCCTTAAAGTTCCTGAGA,0.461
5,TCCCGGGTAGTGAGTGAGA,0.242
6,TCCCCGGCAGTGGTGGAGA,0.25
7,TCCCGCTGAGTTTCGGAGA,0.0874
8,TCCCCTCGAGTGAAAGAGA,0.319
9,TCCCCTGAAGTTCTGGAGA,0.237
10,TCCCTCGGAGTGCACGAGA,0.185
11,TCCCATTCAGTTACGGAGA,0.254
12,TCCCAACGAGTAGAGGAGA,0.259
13,TCCCCAGTAGTCCGGGAGA,0.162
14,TCCCCACGAGTCTATGAGA,0.333
15,TCCCAAGCAGTGCGAGAGA,0.221
16,TCCCAACTAGTCGACGAGA,0.701
17,TCCCGGGCAGTTGTCGAGA,0.325
18,TCCCTAACAGTGGTCGAGA,0.518
19,TCCCAATGAGTGGCAGAGA,0.312
20,TCCCGAGCAGTGAAGGAGA,0.233
21,TCCCAACGAGTTAGGGAGA,0.145
22,TCCCATGCAGTATACGAGA,0.228
23,TCCCCTAGAGTATTCGAGA,0.207
24,TCCCTGCTAGTAAACGAGA,0.389
25,TCCCCGAAAGTCCATGAGA,0.223
26,TCCCTCAAAGTAGGCGAGA,0.112

row,Sequence,TetR repression strength
1,TCCCGGGGAGTGCTGGAGA,0.359
2,TCCCCGTCAGTCGCCGAGA,0.174
3,TCCCCGCGAGTGTACGAGA,0.225
4,TCCCAAAGAGTGGGGGAGA,0.217
5,TCCCGGGGAGTAGCGGAGA,0.0598
6,TCCCAAACAGTGACAGAGA,0.622
7,TCCCGGCAAGTGGTTGAGA,0.452
8,TCCCCGGCAGTTCGCGAGA,0
9,TCCCCGTTAGTTTAGGAGA,0.104
10,TCCCTGCTAGTCCGTGAGA,0.401
11,TCCCGGCTAGTTCGAGAGA,0.282
12,TCCCCGTTAGTGTCGGAGA,0.137
13,TCCCCGCTAGTCAGTGAGA,0.107
14,TCCCCAGGAGTGATAGAGA,0.339
15,TCCCATAGAGTTTGGGAGA,0.127
16,TCCCTCTGAGTAGAAGAGA,0.206
17,TCCCATGCAGTGCTCGAGA,0.218
18,TCCCCCTTAGTAGGCGAGA,0.156
19,TCCCGCGCAGTGGGTGAGA,0.184
20,TCCCAAGCAGTGCCGGAGA,0.228
21,TCCCACGTAGTACCCGAGA,0.104
22,TCCCCGTCAGTAGGTGAGA,0.402
23,TCCCTCAGAGTGTTGGAGA,0.0939
24,TCCCTGGAAGTCCGGGAGA,0.209
25,TCCCCTTTAGTCGCGGAGA,0.193
26,TCCCAACAAGTTTAAGAGA,0.41

row,Sequence,TetR repression strength
1,TCCCCCTAAGTTGCAGAGA,0.227
2,TCCCGCAGAGTCTGGGAGA,0.165
3,TCCCCGGGAGTTGGGGAGA,0.184
4,TCCCGAAGAGTGACAGAGA,0.47
5,TCCCTGGCAGTTTTCGAGA,0.218
6,TCCCGTGAAGTGACTGAGA,0.272
7,TCCCTTCCAGTTCTTGAGA,0.472
8,TCCCGTCCAGTGGTGGAGA,0.19
9,TCCCGGGAAGTTTTAGAGA,0.168
10,TCCCCCTTAGTGATTGAGA,0.257
11,TCCCTTTCAGTGAACGAGA,0.513
12,TCCCTAGAAGTGAGAGAGA,0.0353
13,TCCCCATTAGTACAAGAGA,0.339
14,TCCCATACAGTCACCGAGA,0.424
15,TCCCGGATAGTCGGTGAGA,0.167
16,TCCCTACCAGTAAGAGAGA,0.245
17,TCCCCGCGAGTGCAGGAGA,0.268
18,TCCCGCGAAGTTGCGGAGA,0.122
19,TCCCGCTCAGTATGTGAGA,0.453
20,TCCCCCGGAGTCGATGAGA,0.188
21,TCCCCGGTAGTGCGTGAGA,0.357
22,TCCCGTCGAGTGTGAGAGA,0.186
23,TCCCATTCAGTTCTGGAGA,0.331
24,TCCCTCGTAGTTCCTGAGA,0.33
25,TCCCCAGGAGTATGAGAGA,0.3
26,TCCCGTGAAGTCATCGAGA,0.165

row,Sequence,TetR repression strength
1,TCCCGATGAGTGGACGAGA,0.119
2,TCCCCACGAGTGGAAGAGA,0.251
3,TCCCGGTGAGTCGGGGAGA,0.333
4,TCCCTATGAGTGAAGGAGA,0.227
5,TCCCTGTCAGTGCTTGAGA,0.464
6,TCCCGGGTAGTGCGTGAGA,0.12
7,TCCCTGTCAGTGTCGGAGA,0.388
8,TCCCGTATAGTGAAGGAGA,0.0428
9,TCCCACTCAGTTTGGGAGA,0.144
10,TCCCTGGCAGTGTGTGAGA,0.164
11,TCCCGTTCAGTTGGCGAGA,0.398
12,TCCCCTCTAGTCAGCGAGA,0.278
13,TCCCTCGTAGTTGACGAGA,0.042
14,TCCCTCGTAGTGTGTGAGA,0.478
15,TCCCCACAAGTGGTAGAGA,0.117
16,TCCCTTTTAGTTGATGAGA,0.261
17,TCCCGAATAGTTAGGGAGA,0.289
18,TCCCCATGAGTGCCTGAGA,0.271
19,TCCCTAGCAGTGGGGGAGA,0.119
20,TCCCGAAGAGTACGAGAGA,0.448
21,TCCCTGTAAGTTTGTGAGA,0.131
22,TCCCTTAGAGTCGTTGAGA,0.319
